Measurements: article PMC12136788
The list shows a part of the results.

B1: chr18:35748043:35748044:+_ENSMUSG00000037236_ENSMUST00000166793|perfect_dup|motif|central (ssRNA)
RNA: GGGAGUUCUACAGUCCGACGAUCUGUAUAAAAGAGUGAACACAGCUUACAGUAAAACCCUGUUUUAGGUAUCACAUAGUCGGUACCAACAGGAACAUUGGGCUGAUAUGGUCCAAUUCUAUACUCAUCUGGGAUUGUAUAGUCCAACAGAGGAUUGAGCAUCA
B2: chr5:128440902:128440903:+_ENSG00000066583_ENST00000173527|hu_mus|hu_hu_hu_mus_True|1_8 (ssRNA)
RNA: GGGAGUUCUACAGUCCGACGAUCUUGAACGGUGCUGCCAAGUCCUUUGGGGUAUUGUUCCGUUAUGAUAACUGGAAUCCCUAAGAUCCGAGCUCCUUGCAACAGUCUCUGUCCCACACUAAUGAUGUCCCCAAAAUACUUGAUCAACAGAGGAUUGAGCAUCA
B3: chr1:66488090:66488091:+_ENSMUSG00000015222_ENSMUST00000077355|mus_hu|FALSE|FALSE (ssRNA)
RNA: GGGAGUUCUACAGUCCGACGAUCAAGAUUUCAUUCCUAGAUCAGCGUAUGUGUGUCCCCACAAGAGUGGUGCUCAAAAAGCUUAAUUUGAGUCGUUAUCUUGAGAGUGAAGGCAAGAUAGGUUCUACCCCUUAACCCCACAAGCAACAGAGGAUUGAGCAUCA
B4: chr5:56168658:56168659:+_ENSG00000095015_ENST00000399503|hu_hu|FALSE|FALSE (ssRNA)
RNA: GGGAGUUCUACAGUCCGACGAUCUACGGUUUGCUGCUGUGCAGCUCUGAGGGAAGAAGGGGAAUCCACAGGACUUGACAACUCGUGGCUGUAGAAAUCAUGAGAUCUCCACUUAGAUCUACAAAGGGGACAUAUUAAAGGUUCCAACAGAGGAUUGAGCAUCA
B5: chr18:33747085:33747086:+_ENSG00000134759_ENST00000351393|hu_mus|FALSE|FALSE (ssRNA)
RNA: GGGAGUUCUACAGUCCGACGAUCAGACCAAAUGAUUCUACUAUGCACAGAAGUAAUUUUGUUGGUGAAUGCAAAGAGACUAAAAAAUGGAUCAAACUCCGAGGAAGUCGCAUCCUGUCUCUUCCACAAAGACCAGGUUCGAUCCAACAGAGGAUUGAGCAUCA
B6: chr2:73656703:73656704:-_ENSMUSG00000027104_ENSMUST00000100009|mus_mus|motif|central (ssRNA)
RNA: GGGAGUUCUACAGUCCGACGAUCAAGAAAUGGAAGUGGGAAGAGUGAUUCAGUAACACCCCCAUUUAUUAAGAUGCCACGGAAUCAAAGUGAAAUCAACCACAAUGAGUUAUGAUACAAUUUACACAUUGAGCACAGGAAAAUCAACAGAGGAUUGAGCAUCA
B7: chr11:29408400:29408401:+_ENSMUSG00000032740_ENSMUST00000040182|mus_hu|FALSE|FALSE (ssRNA)
RNA: GGGAGUUCUACAGUCCGACGAUCAGUUAAAGCACAACAGCUUUAUCUUGGGAAUGCCAUUUGCUGAAAAACCAUCUUACUAAAAAAAAGUUUCAGAAAAACACUCUUUACCAUGGGUUAACUUAUGAAUGCUUAGUGUUGCUUCAACAGAGGAUUGAGCAUCA
B8: 115647096_115647216_3754_3pUTR_ENSMUSG00000054414_ENSMUST00000067485|mouse|control|control (ssRNA)
RNA: GGGAGUUCUACAGUCCGACGAUCCGGACUGUUCAAGCUGUCCCAGAAGAGGCAACCAUAGCCAGCACCAUGCAGGAGGAAGCAGCAAAUUCUUCACUUCCAAGUAUUAGUUGAAGAACAGUAACCAGAGUGCAUGGCCGUGGGCAACAGAGGAUUGAGCAUCA
B9: chr13:41369065:41369066:+_ENSMUSG00000091264_ENSMUST00000165561|mus_mus|motif|central (ssRNA)
RNA: GGGAGUUCUACAGUCCGACGAUCCUAGAGCACUGGCCAUGCAACAUUUCCAGAAGGGCUGCUCGACACUGCCUUCUGUCGGAUACCAGCAAACAGCUUUGGAUAAAACCUUGGAUGUCUUAAUGGCAGUUCACUCUGUGAUGCCAACAGAGGAUUGAGCAUCA
B10: chr5:38918441:38918442:-_ENSMUSG00000005103_ENSMUST00000005234|mus_hu|FALSE|FALSE (ssRNA)
RNA: GGGAGUUCUACAGUCCGACGAUCGACACGGUGCCGUCAACGCACUAGUUUGUAAACACUGACAGGCAACAGUUAAGAUACAUUAAAAAAAAAGGAAAGAUACCCACAAUUCCAUUCUUAAAAUCAAGCACAAAAUCUGACAAUCAACAGAGGAUUGAGCAUCA
B11: 38435923_38436043_3069_3pUTR_ENSG00000171475_ENST00000323571|human|control|control (ssRNA)
RNA: GGGAGUUCUACAGUCCGACGAUCAAUUUUUAAGCUAAUUUUCCCCAUCCAUUUCAAAGAGUAGCCAUGGUCUCCUUGCUCUCAUGCCACGCUCUGAGCACCCUCUACACAUAGCAACAGUUGUAGAAAACCAAAGCAUCUGGUCAACAGAGGAUUGAGCAUCA
B12: chr6:86333760:86333761:-_ENSG00000135316_ENST00000355238|hu_mus|hu_hu_hu_mus_True|98_98 (ssRNA)
RNA: GGGAGUUCUACAGUCCGACGAUCUUCCUCAAGAAUCUGUUCCUUGGUUUUACUCUUAGGAAUCGAGCCCACAAAAAGCCUAUUGUUGGCAACUGAGAUGCAGACACCAAUGUGCUUCCCGGAACGAAUUUCAUGAUUAUUAUACAACAGAGGAUUGAGCAUCA
B13: chr1:165697036:165697037:-_ENSG00000143183_ENST00000464650|hu_hu|motif|central (ssRNA)
RNA: GGGAGUUCUACAGUCCGACGAUCUGAAACAAGAAGGAUGCUAUUUGUUUUUCAUUACAUAAACAUUACCUGAACUUAACGGAUCAAUCCACUUAUUUGAUAAAAAUCAUCUAGGACCAAAAGCACUAUCAAGUUUGCUGGCUGCAACAGAGGAUUGAGCAUCA
B14: chr13:108516651:108516652:-_ENSMUSG00000032846_ENSMUST00000105097|mus_mus|FALSE|FALSE (ssRNA)
RNA: GGGAGUUCUACAGUCCGACGAUCAUCGUGUGCCAUUAGGAAGGUCUCUCGGGCCUUGCUGAGGAACUCGAUAAACUCGCUAUAGUGCCGAGGACUGAUGUGUGUGAGGCGUGAGUGCGUUGUGUUGAUAUAGGCCCCGAUCGUCAACAGAGGAUUGAGCAUCA
B15: 111597692_111597812_5853_3pUTR_ENSG00000170145_ENST00000304987|human|control|control (ssRNA)
RNA: GGGAGUUCUACAGUCCGACGAUCCUGUCGGGCUAACAUGCUGUUUGCCUUACAGGGACCAGUGUAUCAGUUGCGUGGAGAUACUAGAGACACACUUGCCCAGCUGGGAAUUGCAGAGCUAGUGCAUUUCUCCCAAAGCACAGACAACAGAGGAUUGAGCAUCA
B16: chr1:60041781:60041782:+_ENSMUSG00000041040_ENSMUST00000036540|mus_hu|mus_mus_mus_hu_False|68_98 (ssRNA)
RNA: GGGAGUUCUACAGUCCGACGAUCAAGUUUACAAUAGCUCAACUUUAGCAGUAGUGGCAAAUUUUCUUUACUUUAGUUUCACAAAAGAAAAUCUUUAUAACCCAGUCCUAGUCUUGGACAUAGUGAAAGCUAUAAAUUCUGACUCAACAGAGGAUUGAGCAUCA
B17: chrX:131284163:131284164:-_ENSMUSG00000050394_ENSMUST00000052431|mus_hu|FALSE|FALSE (ssRNA)
RNA: GGGAGUUCUACAGUCCGACGAUCGGGGCUCGUGUUUCUAGCCAUUGAGAGGCUGGCCAAAUGGCUAUUGAUAUCCUGGCUAAAUGGAAAGCCCGCAUCCUUGGGCUCGGCAAACAACAGUUUUCCCUGAAUGAAAAGACACUUCAACAGAGGAUUGAGCAUCA
B18: chr1:220276048:220276049:+_ENSG00000067704_ENST00000302637|hu_hu|hu_hu_hu_mus_True|1_8 (ssRNA)
RNA: GGGAGUUCUACAGUCCGACGAUCGCAAAUUGCCUGGUUGGCGGGAAUUGUCCAAGGCUGGGUGGUCCAAACUAAAACGCUAACAGGGGAUGAGGCAUCUGUAAGAGACUCCAACUUCGGAGGAGGUUUUAAGAGAGGAAAUUUCAACAGAGGAUUGAGCAUCA
B19: chr12:76453654:76453655:-_ENSG00000187109_ENST00000548044|hu_hu|FALSE|FALSE (ssRNA)
RNA: GGGAGUUCUACAGUCCGACGAUCUGGUUUCCAUUCACAUUCUUCUUCCGUAGGUUCAUAAAUUGCAUUAAUAAUUUCAAAUCGCUUAUCAAAUAGAGGCUGAUAGAGAACAGCAUACUUCCUUUCAAGAUCGUGAACUUCCUCCAACAGAGGAUUGAGCAUCA
B20: chr4:17845017:17845018:+_ENSG00000109805_ENST00000514176|hu_mus|hu_hu_hu_mus_False|8_48 (ssRNA)
RNA: GGGAGUUCUACAGUCCGACGAUCGCUCUCUUAACUUGUAUCUUCAUUAAGGAACUCUGCAAGGUUAAGUUUACUUUUCUGUAGCGCGCGGUUUUGGGCUCGUCUGGGUAAUCUCAUCUUCAUUUCUAUUCUGGUUCCAUGAUCCAACAGAGGAUUGAGCAUCA
B21: chr1:109605286:109605287:-_ENSG00000197780_ENST00000461096|hu_mus|hu_hu_hu_mus_True|58_58 (ssRNA)
RNA: GGGAGUUCUACAGUCCGACGAUCAAGUUUCAGAGUAACAUUCAGUAACCUCUUUAAAUGCAAUUAUCCUUAUUAUAAACUAAGGGCAAUAAUAAUUUAAUACCGUAAGUGAACUACACACAAAGCCUGAACCGCGAAAAUGGUCAACAGAGGAUUGAGCAUCA
B22: chr15:57879074:57879075:-_ENSMUSG00000022361_ENSMUST00000070143|mus_mus|motif|central (ssRNA)
RNA: GGGAGUUCUACAGUCCGACGAUCCCAGCUGUCUGUGUGAAGAAAUCAGCAAAUUGCAGCAUUUGGGAAUUGCUAAUAAAGCGGUAGUUAAAAAAUAAAAAGUUUAUCAAAAUGAAAGCAGCAUGCAUAGUCAAGGCUUUAUCACAACAGAGGAUUGAGCAUCA

What follows are binders tested against T1, UNK ZnF1-3 (human, UniProt Q9C0B0 31-174) (assay: nsRBNS (natural sequence RNA bind-n-seq); RBNS binding buffer (assumed for nsRBNS): 25 mM Tris pH 7.5, 150 mM KCl, 3 mM MgCl2, 0.01% Triton X-100, 500 ug/ml BSA, 20 U/ml SUPERase-In, 4 C; UNK is unkempt and MSI1 is Musashi-1; names of the RNAs are library labels; protein concentration not given here; high values mean tight binding).
T1 sequence: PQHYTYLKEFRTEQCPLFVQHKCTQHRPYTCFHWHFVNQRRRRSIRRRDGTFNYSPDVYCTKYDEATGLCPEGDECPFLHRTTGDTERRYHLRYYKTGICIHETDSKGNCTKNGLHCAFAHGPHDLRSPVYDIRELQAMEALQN
B1 was tested, and the binding signal was 0.49 enrichment R. With B2 the binding signal was 0.748 enrichment R. Binder B3 has a binding signal of 0.909 enrichment R. B4 gave a binding signal of 0.99 enrichment R. B5 was tested, and the binding signal was 1.1 enrichment R. Work on B6 yielded a binding signal of 1.39 enrichment R. B7 showed a binding signal of 0.982 enrichment R. B8 gave a binding signal of 1.49 enrichment R. With B9 the binding signal was 1.15 enrichment R. B10 showed a binding signal of 2.32 enrichment R. B11 was tested, and the binding signal was 1.27 enrichment R. With B12 the binding signal was 1.24 enrichment R. In the case of B13, the binding signal is reported as 0.95 enrichment R. B14 was tested, and the binding signal was 1.09 enrichment R. With B15 the binding signal was 0.611 enrichment R. Work on B16 yielded a binding signal of 0.538 enrichment R. With B17 the binding signal was 1.05 enrichment R. B18 gave a binding signal of 2.7 enrichment R. B19 gave a binding signal of 1.57 enrichment R. Work on B20 yielded a binding signal of 0.365 enrichment R. For B21, the binding signal was 0.924 enrichment R. B22 showed a binding signal of 2.65 enrichment R.
